Measured values reported in the supplement of paper PMC8728848.
Some of the results follow.

Experiments:
Test in all cases: glycan array binding signal (z-score within array); higher = stronger binding
Settings in all cases: glycan notation: IUPAC condensed, linker removed
[1] = molecular target: Gal(b1-4)GlcNAc(b1-3)Gal(b1-4)Glc
Outline: (§1)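 Glycan array data came from 3228 arrays in the Consortium for Functional Glycomics database, and only arrays with an available protein sequence were kept. Glycan names were put into IUPAC-condensed notation, and columns mapping to the same glycan were averaged. The binding signal is a within-array Z-score, averaged across arrays of one protein sequence run at different concentrations or buffers and across linkers. A negative Z-score can be read as non-binding.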

[2] = molecular target: Gal(b1-4)GlcNAc(b1-3)Gal(b1-4)GlcNAc
Outline: as §1

[3] = molecular target: Gal(b1-4)GlcNAc(b1-3)Gal(b1-4)GlcNAc(b1-2)Man(a1-3)[Gal(b1-4)GlcNAc(b1-3)Gal(b1-4)GlcNAc(b1-2)Man(a1-6)]Man(b1-4)GlcNAc(b1-4)GlcNAc
Outline: as §1

[4] = molecular target: Gal(b1-4)GlcNAc(b1-3)Gal(b1-4)GlcNAc(b1-2)Man(a1-3)[Gal(b1-4)GlcNAc(b1-3)Gal(b1-4)GlcNAc(b1-2)Man(a1-6)]Man(b1-4)GlcNAc(b1-4)[Fuc(a1-6)]GlcNAc
Outline: as §1

[5] = molecular target: Gal(b1-4)GlcNAc(b1-3)Gal(b1-4)GlcNAc(b1-2)[Gal(b1-4)GlcNAc(b1-3)Gal(b1-4)GlcNAc(b1-6)]Man(a1-6)[Gal(b1-4)GlcNAc(b1-3)Gal(b1-4)GlcNAc(b1-2)Man(a1-3)]Man(b1-4)GlcNAc(b1-4)GlcNAc
Outline: as §1

[6] = molecular target: Gal(b1-4)GlcNAc(b1-3)Gal(b1-4)GlcNAc(b1-2)[Gal(b1-4)GlcNAc(b1-3)Gal(b1-4)GlcNAc(b1-6)]Man(a1-6)[Gal(b1-4)GlcNAc(b1-3)Gal(b1-4)GlcNAc(b1-2)Man(a1-3)]Man(b1-4)GlcNAc(b1-4)[Fuc(a1-6)]GlcNAc
Outline: as §1

[7] = molecular target: Gal(b1-4)GlcNAc(b1-3)Gal(b1-4)GlcNAc(b1-3)Gal(b1-4)GlcNAc
Outline: as §1

[8] = molecular target: Gal(b1-4)GlcNAc(b1-3)Gal(b1-4)GlcNAc(b1-3)Gal(b1-4)GlcNAc(b1-2)Man(a1-3)[Gal(b1-4)GlcNAc(b1-3)Gal(b1-4)GlcNAc(b1-3)Gal(b1-4)GlcNAc(b1-2)Man(a1-6)]Man(b1-4)GlcNAc(b1-4)GlcNAc
Outline: as §1

[9] = molecular target: Gal(b1-4)GlcNAc(b1-3)Gal(b1-4)GlcNAc(b1-3)Gal(b1-4)GlcNAc(b1-2)Man(a1-3)[Gal(b1-4)GlcNAc(b1-3)Gal(b1-4)GlcNAc(b1-3)Gal(b1-4)GlcNAc(b1-2)Man(a1-6)]Man(b1-4)GlcNAc(b1-4)[Fuc(a1-6)]GlcNAc
Outline: as §1

[10] = molecular target: Gal(b1-4)GlcNAc(b1-3)Gal(b1-4)GlcNAc(b1-3)Gal(b1-4)GlcNAc(b1-2)[Gal(b1-4)GlcNAc(b1-3)Gal(b1-4)GlcNAc(b1-3)Gal(b1-4)GlcNAc(b1-6)]Man(a1-6)[Gal(b1-4)GlcNAc(b1-3)Gal(b1-4)GlcNAc(b1-3)Gal(b1-4)GlcNAc(b1-2)Man(a1-3)]Man(b1-4)GlcNAc(b1-4)[Fuc(a1-6)]GlcNAc
Outline: as §1

[11] = molecular target: Gal(b1-4)GlcNAc(b1-3)Gal(b1-4)GlcNAc(b1-3)Gal(b1-4)GlcNAc(b1-3)Gal(b1-4)GlcNAc(b1-2)Man(a1-3)[Gal(b1-4)GlcNAc(b1-3)Gal(b1-4)GlcNAc(b1-3)Gal(b1-4)GlcNAc(b1-3)Gal(b1-4)GlcNAc(b1-2)Man(a1-6)]Man(b1-4)GlcNAc(b1-4)GlcNAc
Outline: as §1

[12] = molecular target: Gal(b1-4)GlcNAc(b1-3)Gal(b1-4)GlcNAc(b1-3)Gal(b1-4)GlcNAc(b1-3)Gal(b1-4)GlcNAc(b1-2)Man(a1-3)[Gal(b1-4)GlcNAc(b1-3)Gal(b1-4)GlcNAc(b1-3)Gal(b1-4)GlcNAc(b1-3)Gal(b1-4)GlcNAc(b1-2)Man(a1-6)]Man(b1-4)GlcNAc(b1-4)[Fuc(a1-6)]GlcNAc
Outline: as §1

[13] = molecular target: Gal(b1-4)GlcNAc(b1-3)Gal(b1-4)GlcNAc(b1-3)Gal(b1-4)GlcNAc(b1-3)Gal(b1-4)GlcNAc(b1-2)[Gal(b1-4)GlcNAc(b1-3)Gal(b1-4)GlcNAc(b1-3)Gal(b1-4)GlcNAc(b1-3)Gal(b1-4)GlcNAc(b1-6)]Man(a1-6)[Gal(b1-4)GlcNAc(b1-3)Gal(b1-4)GlcNAc(b1-3)Gal(b1-4)GlcNAc(b1-3)Gal(b1-4)GlcNAc(b1-2)Man(a1-3)]Man(b1-4)GlcNAc(b1-4)[Fuc(a1-6)]GlcNAc
Outline: as §1

[14] = molecular target: Gal(b1-4)GlcNAc(b1-3)Gal(b1-4)GlcNAc(b1-3)Gal(b1-4)GlcNAc(b1-3)Gal(b1-4)GlcNAc(b1-3)Gal(b1-4)GlcNAc(b1-2)Man(a1-3)[Gal(b1-4)GlcNAc(b1-3)Gal(b1-4)GlcNAc(b1-3)Gal(b1-4)GlcNAc(b1-3)Gal(b1-4)GlcNAc(b1-3)Gal(b1-4)GlcNAc(b1-2)Man(a1-6)]Man(b1-4)GlcNAc(b1-4)GlcNAc
Outline: as §1

[15] = molecular target: Gal(b1-4)GlcNAc(b1-3)Gal(b1-4)GlcNAc(b1-3)Gal(b1-4)GlcNAc(b1-3)Gal(b1-4)GlcNAc(b1-3)Gal(b1-4)GlcNAc(b1-2)Man(a1-3)[Gal(b1-4)GlcNAc(b1-3)Gal(b1-4)GlcNAc(b1-3)Gal(b1-4)GlcNAc(b1-3)Gal(b1-4)GlcNAc(b1-3)Gal(b1-4)GlcNAc(b1-2)Man(a1-6)]Man(b1-4)GlcNAc(b1-4)[Fuc(a1-6)]GlcNAc
Outline: as §1

[16] = molecular target: Gal(b1-4)GlcNAc(b1-3)Gal(b1-4)GlcNAc(b1-3)Gal(b1-4)GlcNAc(b1-3)Gal(b1-4)GlcNAc(b1-3)Gal(b1-4)GlcNAc(b1-2)[Gal(b1-4)GlcNAc(b1-3)Gal(b1-4)GlcNAc(b1-3)Gal(b1-4)GlcNAc(b1-3)Gal(b1-4)GlcNAc(b1-3)Gal(b1-4)GlcNAc(b1-6)]Man(a1-6)[Gal(b1-4)GlcNAc(b1-3)Gal(b1-4)GlcNAc(b1-3)Gal(b1-4)GlcNAc(b1-3)Gal(b1-4)GlcNAc(b1-3)Gal(b1-4)GlcNAc(b1-2)Man(a1-3)]Man(b1-4)GlcNAc(b1-4)[Fuc(a1-6)]GlcNAc
Outline: as §1

[17] = molecular target: Gal(b1-4)GlcNAc(b1-3)Gal(b1-4)GlcNAc(b1-3)Gal(b1-4)GlcNAc(b1-3)Gal(b1-4)GlcNAc(b1-3)Gal(b1-4)GlcNAc(b1-3)Gal(b1-4)GlcNAc(b1-2)Man(a1-3)[Gal(b1-4)GlcNAc(b1-3)Gal(b1-4)GlcNAc(b1-3)Gal(b1-4)GlcNAc(b1-3)Gal(b1-4)GlcNAc(b1-3)Gal(b1-4)GlcNAc(b1-3)Gal(b1-4)GlcNAc(b1-2)Man(a1-6)]Man(b1-4)GlcNAc(b1-4)GlcNAc
Outline: as §1

[18] = molecular target: Gal(b1-4)GlcNAc(b1-3)Gal(b1-4)GlcNAc(b1-3)GalNAc
Outline: as §1

[19] = molecular target: Gal(b1-4)GlcNAc(b1-3)Gal(b1-4)GlcNAc(b1-3)[Gal(b1-4)GlcNAc(b1-3)Gal(b1-4)GlcNAc(b1-6)]GalNAc
Outline: as §1

[20] = molecular target: Gal(b1-4)GlcNAc(b1-3)Gal(b1-4)GlcNAc(b1-6)[Gal(b1-3)]GalNAc
Outline: as §1

[21] = molecular target: Gal(b1-4)GlcNAc(b1-3)Gal(b1-4)[Fuc(a1-3)]GlcNAc(b1-3)Gal(b1-4)[Fuc(a1-3)]GlcNAc
Outline: as §1

[22] = molecular target: Gal(b1-4)GlcNAc(b1-3)GalNAc
Outline: as §1

[23] = molecular target: Gal(b1-4)GlcNAc(b1-3)[Fuc(a1-3)GlcNAc(b1-6)]Gal(b1-4)Glc
Outline: as §1

B1: rCNL (Clitocybe nebularis), B2ZRS9 (protein)
chain: SITPGTYNITNVAYTNRLIDLTGSNPAENTLIIGHHLNKTPSGYGNQQWTLVQLPHTTIYTMQAVNPQSYVRVRDDNLVDGAALVGSQQPTPVSIESAGNSGQFRIKIPNLGLALTLPSDANSTPIVLGEVDETSTNQLWAFESVSAV
[1]
  glycan array binding signal (z-score): -0.059
[2]
  glycan array binding signal (z-score): 0.049
[3]
  glycan array binding signal (z-score): 0.025
[4]
  glycan array binding signal (z-score): -0.195
[5]
  glycan array binding signal (z-score): -0.209
[6]
  glycan array binding signal (z-score): -0.147
[7]
  glycan array binding signal (z-score): 0.047
[8]
  glycan array binding signal (z-score): -0.018
[9]
  glycan array binding signal (z-score): -0.198
[10]
  glycan array binding signal (z-score): -0.161
[11]
  glycan array binding signal (z-score): -0.184
[12]
  glycan array binding signal (z-score): -0.186
[13]
  glycan array binding signal (z-score): -0.171
[14]
  glycan array binding signal (z-score): -0.198
[15]
  glycan array binding signal (z-score): -0.164
[16]
  glycan array binding signal (z-score): -0.182
[17]
  glycan array binding signal (z-score): -0.08
[18]
  glycan array binding signal (z-score): -0.058
[19]
  glycan array binding signal (z-score): 0.003
[20]
  glycan array binding signal (z-score): -0.049
[21]
  glycan array binding signal (z-score): -0.082
[22]
  glycan array binding signal (z-score): -0.268
[23]
  glycan array binding signal (z-score): -0.192
